Hit rate of the full screen: of about 230,000 compounds, about 3,600 (1.6%) were called active. The shares of active, inactive and inconclusive entries below differ from those in the screen. Calls come from the whole dose curve; as a rule, active = well fitted inhibition curve with a large enough effect (not every such curve was filed as active); inconclusive = small, poorly fitted or top-dose-only effect, or another doubt; inactive = no such curve, though single readings can be large or run the other way. A potency beside an inconclusive call is a rough fit, not a confirmed value.
These molecules were tested against Lysine-specific demethylase 4E (Homo sapiens) (UniProt B2RXH2) (assay: qHTS Assay for Inhibitors of Human Jumonji Domain Containing 2E (JMJD2E)). Settings: JMJD2E catalytic domain, FDH-coupled NADH fluorescence (FDH is formaldehyde dehydrogenase); series mostly up to 57.1 µM.
UniProt B2RXH2, sequence (B2RXH2 whole entry, looked up, the tested form may be a part): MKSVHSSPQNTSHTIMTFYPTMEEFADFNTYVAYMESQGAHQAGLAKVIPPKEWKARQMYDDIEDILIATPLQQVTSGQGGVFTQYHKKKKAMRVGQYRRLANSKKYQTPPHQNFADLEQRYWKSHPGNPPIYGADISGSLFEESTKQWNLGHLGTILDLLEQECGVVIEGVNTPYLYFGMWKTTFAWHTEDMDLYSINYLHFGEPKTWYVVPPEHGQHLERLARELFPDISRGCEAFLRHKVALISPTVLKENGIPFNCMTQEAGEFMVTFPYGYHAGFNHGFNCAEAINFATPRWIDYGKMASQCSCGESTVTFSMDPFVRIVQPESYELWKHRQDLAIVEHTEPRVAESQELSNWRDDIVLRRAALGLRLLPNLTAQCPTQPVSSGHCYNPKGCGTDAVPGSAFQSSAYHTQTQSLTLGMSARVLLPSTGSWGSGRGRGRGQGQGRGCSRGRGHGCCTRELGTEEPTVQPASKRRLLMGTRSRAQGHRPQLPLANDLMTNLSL
Note: nearly all actives have a fitted effect of over 50% in size.
Potency is the fitted concentration of half-maximal effect; tags give direction and shape of the fitted curve.

| Compound | Potency |
| --- | --- |
| COc1ccc(CNC(=O)C(C)Cc2ccccc2)cc1O (stereo not given) | inconclusive: 25.1 µM [inhibitor, single point] |
| COC(=O)c1ccc(-c2nn(C)c(=O)c3ccccc23)cc1 | inactive |
| Cc1cc(C)cc(-c2cc3c(c(-c4c(O)c(-c5cc(C)cc(C)c5)cc5c4CCCC5)c2O)CCCC3)c1 | inactive |
| COC(=O)C1=C(C)Nc2[nH]c(=S)[nH]c(=O)c2C1c1ccc(OC)cc1 (stereo not given) | inconclusive: 39.8 µM [inhibitor, single point] |
| Cc1ccc(C(=O)CC(C(=O)O)n2cnc([N+](=O)[O-])n2)cc1 (stereo not given) | inactive |
| CC/C=C/C(=O)N1CC2(CC(c3cccc(NC(=O)CC(c4ccccc4)c4ccccc4)c3)=NO2)C[C@@H]1C(N)=O (stereo not given in full) | inactive |
| O=C(Nc1ccccc1)c1cccnc1NCCc1ccccc1 | inconclusive: 31.6 µM [inhibitor, partial curve] |
| c1cc2nc(C34CC5CC(CC(C5)C3)C4)[nH]c2cn1 | inconclusive: 3.98 µM [inhibitor, single point] |
| O=C(CCc1ccccc1)Nc1nnc(-c2ccccn2)o1 | inconclusive: 28.2 µM [inhibitor, partial curve] |
| O=C(/C=C/c1ccco1)Oc1cc(Br)cc(/C=N/NC(=O)c2ccccc2O)c1 | active: 25.1 µM |
| COc1ccc(NC(=O)c2ccc(NC(=O)COC(=O)CC(NC(=O)c3ccccc3Cl)c3ccccc3)cc2)cc1 (stereo not given) | inconclusive: 28.2 µM [inhibitor, single point] |
| O=[N+]([O-])c1ccc(-c2cnc(NO)nc2)cc1 | inconclusive: 28.2 µM [inhibitor, single point] |
| CCOC(=O)c1ccc(NC(=O)CCSCCc2ccccn2)cc1 | inconclusive: 6.31 µM [inhibitor, single point] |
| COC(=O)C1=C(C)N(CC(C)C)C(=O)C1 | inactive |
| NC(=O)C1(NC(=O)[C@@H]2CC3(CC(c4cccc(NC(=O)[C@@H]5CCC(=O)N5)c4)=NO3)CN2C(=O)c2ccccc2)CC1 (stereo not given in full) | inactive |
| CCOC(=O)N1CCN(C(=O)c2sc3nc(-c4ccc(F)cc4)cn3c2C)CC1 | inactive |
| COc1ccccc1NC(=O)NCc1ccc2c(c1)OCO2 | inactive |
| COc1cccc(CN2CCCN(S(=O)(=O)c3ccc(Br)cc3)CC2)c1 | inactive |
| O=C(Nc1cccc(-c2cnc3ccccc3n2)c1)c1ccco1 | inconclusive: 35.5 µM [inhibitor, single point] |
| N#C/C(=C(\O)Cc1ccccc1)c1nc2ccccc2[nH]1 | inconclusive: 39.8 µM [inhibitor, single point] |
| CC(C)(C)NC(=O)NC(=O)COC(=O)c1cccc(OC(F)F)c1 | inconclusive: 39.8 µM [inhibitor, single point] |
| O=C(O)c1ccc(N=NNc2cccc([N+](=O)[O-])c2)cc1 | inactive |
| O=c1cc(-c2ccccc2)nc2c(-c3ccccc3)c(C(F)(F)F)[nH]n12 | inconclusive: 5.62 µM [inhibitor, full curve] |
| CCOC(=O)c1[nH]c2ccc(OC)cc2c1NC(=O)C(C)N1CCC2(CC1)OCCO2 (stereo not given) | inconclusive: 22.4 µM [inhibitor, partial curve] |

| Compound | Potency |
| --- | --- |
| COC(=O)c1ccc(NC(=O)COc2ccc([N+](=O)[O-])cc2)cc1 | inactive |
| Cc1ccc(N=Cc2c(C)[nH]n(-c3ccccc3)c2=O)nc1 | inconclusive: 25.1 µM [inhibitor, single point] |
| c1ccc(CNc2oc(-c3ccccc3)nc2-c2cccc3ccccc23)cc1 | inconclusive: 25.1 µM [inhibitor, single point] |
| Cc1ccc(S(=O)(=O)c2nc(-c3ccc(F)cc3)oc2SCC(N)=O)cc1 | inactive |
| CC(C)C[C@@H](CC(=O)N[C@@H](CCC(=O)O)CC(=O)O)NC(=O)[C@@H]1CCCC[C@H]1NC(=O)C[C@@H](NC(=O)C[C@H](Cc1ccccc1)NC(=O)[C@@H]1CCCC[C@H]1N)C(C)C | inactive |
| O=C(c1cc2nc(-c3ccc(F)cc3)cc(C(F)(F)F)n2n1)N1CCCCC1c1cccnc1 (stereo not given) | inconclusive: 35.5 µM [inhibitor, single point] |
| Cc1cc(=O)oc2cc(OS(C)(=O)=O)ccc12 | inconclusive: 3.55 µM [inhibitor, full curve] |
| O=C1CC(=O)N(Cc2ccco2)C(=S)N1 | inconclusive: 39.8 µM [inhibitor, single point] |
| COc1ccc(CNC(=O)C(c2ccncc2)N(C(=O)Cc2cccs2)c2ccccc2)cc1 (stereo not given) | inactive |
| CS(=O)(=O)n1nc(-c2ccc(Cl)cc2)nc1N | inconclusive: 11.2 µM [inhibitor, partial curve] |
| COc1ccc2[nH]cc(C(=O)N3CCCCC3)c(=O)c2c1 | inconclusive: 28.2 µM [inhibitor, partial curve] |
| CCN1CCCC1CNC(=O)Cn1cnc2sc(C)c(S(=O)(=O)N3CCC(C)CC3)c2c1=O (stereo not given) | inactive |
| CCn1c(CSCc2ccc(C)cc2)nnc1SCC(=O)N1CCN(c2ccccc2)CC1 | inactive |
| CCO/N=C(/c1nonc1N)N1CCN(c2ccc([N+](=O)[O-])cc2)CC1 | inactive |
| Cc1ccc(S(=O)(=O)C2(C(=O)N3CCN(C4CCCCC4)CC3)CC2)cc1 | inactive |
| CCn1cc([N+](=O)[O-])c(C(=O)N2N=C(c3ccc(O)c(OC)c3)CC2c2ccccc2O)n1 (stereo not given) | inactive |
| CCOC(=O)NC(NC(=S)Nc1ccc(OCC)cc1)C(Cl)(Cl)Cl (stereo not given) | inactive |
| COC(=O)C(CCSC)NC(=O)c1cc2c(n(-c3ccccc3)c1=O)CC(C)(C)CC2=O (stereo not given) | inconclusive: 35.5 µM [inhibitor, single point] |
| Cc1ccc(NCC(=O)c2ccc([N+](=O)[O-])cc2)cc1 | inactive |
| CCOC(=O)C1=C(N)n2c(s/c(=C\c3ccco3)c2=O)=C(C(=O)OC(C)C)C1c1ccco1 (stereo not given) | inconclusive: 28.2 µM [inhibitor, single point] |
| COC(=O)c1ccc(C(=O)OC)c(NC(=O)C(C)(C)C)c1 | inconclusive: 14.1 µM [inhibitor, partial curve] |
| S=C(Nc1cccc(Cl)c1Cl)N1CCC2(CC1)OCCO2 | inactive |
| Cc1cccc(-c2cc3nc4c(c(N5CCOCC5)n3n2)CCCC4)c1 | inconclusive: 39.8 µM [inhibitor, single point] |
| Cc1onc(-c2ccc(Cl)cc2Cl)c1-c1csc(N/N=C/c2ccccc2Cl)n1 | inconclusive: 35.5 µM [inhibitor, single point] |

| Compound | Potency |
| --- | --- |
| CCSC1(SCC)N=C(N)C2(C#N)C(c3ccc(F)cc3)C12C#N (stereo not given) | inactive |
| O=c1oc2c(CN3CCOCC3)c(O)ccc2c2c1CCCC2 | inconclusive: 31.6 µM [inhibitor, partial curve] |
| OC(CNCc1ccccn1)c1ccccc1 (stereo not given) | inconclusive: 35.5 µM [inhibitor, single point] |
| COc1cc2c3nnc(-c4ccccc4)c-3cn(Cc3ccc(F)cc3)c2cc1OC | inconclusive: 31.6 µM [inhibitor, partial curve] |
| CN(C1CCCCC1)S(=O)(=O)c1ccc(NC(=O)c2ccc(Br)o2)cc1 | inconclusive: 35.5 µM [inhibitor, single point] |
| CC(C)c1[nH]nc2c1C(c1cccc(OC(=O)N3CCOCC3)c1)C(C#N)=C(N)O2 (stereo not given) | inactive |
| CC1CCCN(c2nc(-c3cccnc3)nc3scc(-c4ccccc4)c23)C1 (stereo not given) | inconclusive: 22.4 µM [inhibitor, partial curve] |
| CN1/C(=C\C(=O)Nc2ccc(Br)cc2)C(C)(C)c2ccccc21 | inconclusive: 39.8 µM [inhibitor, single point] |
| CC(C)Nc1nc(-c2ccncc2)nc(-c2ccc(Cl)cc2)c1C#N | inconclusive: 25.1 µM [inhibitor, single point] |
| Nc1nc(N2CCN(C(=O)c3ccco3)CC2)nc2ccccc12 | inconclusive: 31.6 µM [inhibitor, partial curve] |
| CC1(C(=O)Nc2ccc3ccccc3c2)CC1(Br)Br (stereo not given) | inconclusive: 28.2 µM [inhibitor, single point] |
| COC(=O)[C@@]1(Cc2ccc(OC)cc2)[C@H]2c3cc(C(=O)N(C)C)n(Cc4ccc(OC)c(OC)c4)c3C[C@H]2CN1C(=O)c1ccccc1 | inconclusive: 39.8 µM [inhibitor, single point] |
| Cc1ccccc1OCC(=O)NNC=O | inactive |
| CCN1CCN(CC(=O)N2N=C(c3ccc(OC)cc3)CC2c2ccc(OC)cc2)C(=O)C1=O (stereo not given) | inconclusive: 35.5 µM [inhibitor, partial curve] |
| Cc1noc(C)c1COC(=O)c1ccc(-c2nc3ccccc3s2)s1 | inconclusive: 35.5 µM [inhibitor, partial curve] |
| CC1=C(C(=O)Nc2ccccc2C)C2(CCCCC2)C(C(N)=O)C(=S)N1 (stereo not given) | inactive |
| Nc1ccccc1Sc1ccc(C(=O)c2ccccc2C(=O)O)cc1[N+](=O)[O-] | inconclusive: 39.8 µM [inhibitor, single point] |
| CCn1c(=O)cc(OCC(=O)NCCc2cccc(C)c2)c2ccccc21 | inactive |
| COCCn1c(CCC(=O)O)ccc1-c1cccs1 | inconclusive: 28.2 µM [inhibitor, partial curve] |
| O=C(Nc1nnc(-c2ccccc2)o1)c1cc(-c2cccs2)nc2ccccc12 | inconclusive: 31.6 µM [inhibitor, partial curve] |
| CCCCn1c(SCC(=O)NCC2CCCO2)nc2ccc(N3CCOCC3)cc2c1=O (stereo not given) | inconclusive: 28.2 µM [inhibitor, partial curve] |
| Cc1cc(C)n2nc(C(=O)Nc3cccc(S(=O)(=O)N(C)c4ccccc4)c3)nc2n1 | inactive |

— PubChem BioAssay AID2147 (National Center for Advancing Translational Sciences (NCATS), 2009)
